The other results are listed elsewhere or left out. Further columns of the screen follow, without active or inactive calls. The list favours compounds with an active or inconclusive main result.
Test: growth inhibition of WT strain, primary screen, mitochondrial fusion inhibitor project, WT and mutant strains, chemical genetic (AID 1362); note: tested in S. cerevisiae
Conditions: mitochondrial fusion phenotypic screen, at 10 µM
Compound CC(=O)c1sc(N/N=C\c2ccc(Br)cc2)nc1C has an inhibition of 58.8%.
In the case of CCOC(=O)c1ccc(NC(=S)N2CCSC2c2ccc(Cl)cc2)cc1 (stereo unspecified), the inhibition is reported as 37.5%.
COC(=O)[C@@H]1[C@@H](C#N)C2(c3ccccc3-c3ccccc32)N(c2ccc(Cl)cc2)N1C#N showed an inhibition of 30.4%.
CN1CCN(c2cc(N3CCc4ccccc4C3)c(F)cc2[N+](=O)[O-])CC1 showed an inhibition of 73.1%.
Compound COc1ccc(/C=C/c2nc3cc(-c4ccccc4)ccc3o2)cc1O has an inhibition of 5.88%.
Work on O=C(NC1=C(Nc2ccc(F)cc2)C(=O)c2ccccc2C1=O)c1ccc(Cl)cc1 yielded an inhibition of 42.6%.
Compound Cc1nc(C(=O)Nc2cccc(Cl)c2)nn1-c1cc(OC(C)C)c(Cl)cc1Cl has an inhibition of 32.9%.
In the case of Clc1ccc(-c2csc(Nc3ccccc3)[n+]2Cc2ccco2)c(Cl)c1, the inhibition is reported as 37.1%.
Compound N/C(=N\OC(=O)Cc1ccc(-c2ccccc2)cc1)c1ccccn1 has an inhibition of 54.5%.
For CCCCCC1CCC(c2n[nH]c(=S)n2C)CC1 (stereo unspecified), the inhibition was 56.3%.
COc1ccc(OC)c(-c2cc(C(=O)N3CCc4ccccc4C3)no2)c1 gave an inhibition of 35.1%.
With CCSc1ccc2cc(OC)ccc2[n+]1CC the inhibition was -40.2%.
Work on Cc1c(N(C(=O)Nc2ccccc2)C2=NCC(C)S2)c(=O)n(-c2ccccc2)n1C (stereo unspecified) yielded an inhibition of 20.7%.
CC(C)(C)c1ccc(CN2N=C(/C=C/c3ccccc3)CCC2=O)cc1 gave an inhibition of 3.81%.
For Cc1cc(C)cc(OCC(=O)OCC(=O)c2ccc3c(c2)NC(=O)CO3)c1, the inhibition was -1.64%.
In the case of CCOC(=O)C1=C(C)N=C2SCCC(=O)N2C1c1sccc1C (stereo unspecified), the inhibition is reported as 5.51%.
With Cc1cccc(N(C)C(=S)Oc2ccc3ccccc3c2)c1 the inhibition was 8.82%.
Compound O=C(c1ccc(Cl)cc1[N+](=O)[O-])N(Cc1ccccc1)Cc1ccccc1 has an inhibition of 29.1%.
With CCOC(=O)C1=NN(c2ccccc2)C2=NC(C)=C(C(=O)OC)C(c3ccc(C)cc3)N12 (stereo unspecified) the inhibition was 4.52%.
CCOc1cccc(-c2cc(-c3n[nH]c(=S)n3CC)c3ccccc3n2)c1 showed an inhibition of 39%.
For CC(C)=CCc1c(O)ccc(C(=O)Cc2ccccc2)c1O, the inhibition was 34.9%.
Oc1cccc2c(NC(=S)Nc3ccc(SC(F)F)cc3)cccc12 showed an inhibition of 49.7%.
Compound c1ccc(-c2oc3ncnc(NCCCn4ccnc4)c3c2-c2ccccc2)cc1 has an inhibition of 24.8%.
In the case of CCOC(=O)C1=C(c2ccccc2)N=C2SCC(=O)N2C1c1ccc2c(c1)OCO2 (stereo unspecified), the inhibition is reported as 25%.
For Cc1ccc(C)c(NC(=S)Nc2ncccc2C)c1, the inhibition was 55%.
In the case of O=C(c1cnc(-c2ccccc2)s1)c1ccc(Cl)cc1Cl, the inhibition is reported as 34.2%.
Work on COC(=O)c1ccccc1NC1=C/C(=N\S(=O)(=O)c2cccs2)c2ccccc2C1=O yielded an inhibition of 37.2%.
COC(=O)c1c(NC(=O)c2c(-c3ccccc3Cl)noc2C)sc2c1CCC2 gave an inhibition of 32.1%.
Compound CN(C1=C(N2CCCCC2)C(=O)c2ccccc2C1=O)c1ccccc1 has an inhibition of 36.3%.
CC(C)(C)c1nc(NC(=O)Nc2ccccc2)sc1Br gave an inhibition of 29.2%.
Cc1sc2nc(CN(Cc3cccs3)C(=O)NC3CCCCC3)[nH]c(=O)c2c1C showed an inhibition of 14.1%.
CN1CC(c2ccccc2Cl)C2(COc3ccccc3C2=O)C12C(=O)Nc1ccccc12 (stereo unspecified) gave an inhibition of 11.9%.
CSc1ccc(CN(C)CC(=O)Nc2ccc(C)cc2Br)cc1 gave an inhibition of 22.4%.
With Cn1c(=O)n(C)c2cc([N+](=O)[O-])c(N3CCN(S(=O)(=O)c4ccc(C(C)(C)C)cc4)CC3)cc21 the inhibition was -3.08%.
Cc1cccc(C)c1NC(=S)NC(C)CCc1ccccc1 (stereo unspecified) gave an inhibition of 62.1%.
With S=C(NCc1ccc(Cl)cc1Cl)NC1CCCCC1 the inhibition was 72.7%.
Compound Cc1cccc(NC(=S)N/N=C/c2ccc3c(c2)OCO3)c1 has an inhibition of -0.1%.
For FC(F)(F)c1nc(N2CCCC2)ncc1-c1nnnn1-c1ccccc1, the inhibition was 20.9%.
COc1cc2c(C(=O)N3CCOCC3)c(CSc3ccccc3)n(C)c2cc1Br gave an inhibition of 20.6%.
Work on CN=c1scc(-c2ccccc2F)n1/N=C(\C)c1cccnc1 yielded an inhibition of 66.9%.
In the case of O=C(COc1ccc(Cl)cc1Cl)N1CCCN(C(=O)COc2ccc(Cl)cc2Cl)CC1, the inhibition is reported as 55.4%.
For COc1ccccc1-c1c(C)nn2c(N3CCN(Cc4ccccc4)CC3)cc(C)nc12, the inhibition was 50.1%.
With CCC1Oc2ccc(C)cc2N(CC(=O)NCCCN2CCCCC2CC)C1=O (stereo unspecified) the inhibition was 19.5%.
Compound C/C(=N\N=C(/N)SC1CC(=O)N(c2ccc(Cl)cc2)C1=O)c1cccs1 (stereo unspecified) has an inhibition of 45.7%.
Compound CC12CCC(c3c(C(=O)Nc4nccs4)nn(-c4ccccc4)c31)C2(C)C (stereo unspecified) has an inhibition of 28.6%.
With Cc1[nH]n(C(N)=S)c(=O)c1N=Nc1ccc(S(=O)(=O)N2CCCCCC2)cc1 the inhibition was 34.1%.
Compound O=C(Nc1ccc2c(c1)OCO2)c1ccccc1SCC(=O)N1CCCC1 has an inhibition of -11.8%.
In the case of CCCOc1ccc(-c2nc(C#N)c(N3CCC(C(N)=O)CC3)o2)cc1, the inhibition is reported as -12.2%.
For CCC(C)c1ccc(NC(=O)COc2c(F)c(F)c(C(F)(F)F)c(F)c2F)cc1 (stereo unspecified), the inhibition was -11.8%.
In the case of COc1ccc(C(=O)NN(C)c2nc(-c3ccccc3)nnc2C(F)(F)F)cc1, the inhibition is reported as 7.72%.
With c1ccc(-c2noc(CN3CCN(C(c4ccccc4)c4ccccc4)CC3)n2)cc1 the inhibition was 62.3%.
For O=C(Nc1nnc(-c2ccco2)o1)c1ccc(Cl)cc1, the inhibition was 64.8%.
Work on CCCSc1nc(-n2ncc(C#N)c2N)c2c3c(sc2n1)CCC(C)C3 (stereo unspecified) yielded an inhibition of 21.8%.
S=C1NC2(CCCCC2)Cc2ccccc21 gave an inhibition of 50.3%.
Work on COc1ccccc1N(CC(O)COc1c(C)cc(C)cc1C)S(=O)(=O)c1ccccc1 (stereo unspecified) yielded an inhibition of 4.17%.
In the case of CN1CCN(CCCNC(=O)c2ccc(/C=C3/Sc4ccccc4N(Cc4cccc(Cl)c4)C3=O)cc2)CC1, the inhibition is reported as 22.7%.
Compound CCOC(=O)NC(c1ccc(C(C)C)cc1)C(Cl)(Cl)Cl (stereo unspecified) has an inhibition of 42.6%.
COc1ccc(CCNS(=O)(=O)c2ccc(OC)cc2)cc1 showed an inhibition of 14.6%.
For CN(C)S(=O)(=O)c1cccc(-n2sc3ccccc3c2=O)c1, the inhibition was 43.5%.
In the case of COc1cc(NC(=O)c2ccc([N+](=O)[O-])o2)ccc1NC(=O)c1cccs1, the inhibition is reported as 91.1%.
In the case of COC(=O)c1c(NC(=O)CN2CCC3(O)CCCCC3C2c2ccc(OC)cc2OC)sc(C)c1C (stereo unspecified), the inhibition is reported as 4.15%.
Cc1cccc(NC(=O)C2C(c3ccccc3)C2(Cl)Cl)c1 (stereo unspecified) gave an inhibition of 32.5%.
Work on CCC(c1nnnn1C(C)(C)C)N1CCN(c2cc(Cl)ccc2C)CC1 (stereo unspecified) yielded an inhibition of 41.1%.
Compound COc1ccc(C(CCNC(C)c2ccccc2)c2ccc(F)cc2)cc1 (stereo unspecified) has an inhibition of 18.4%.
Work on O=C(O)c1ccc(NC(=S)NC(=O)c2cccc(COc3ccccc3)c2)cc1 yielded an inhibition of 70.9%.
With Cc1cc(-c2ccccc2)nc2cc(C(=O)N(Cc3ccccc3)Cc3ccccc3)nn12 the inhibition was 7.32%.
